Reference: article PMC4336329 (PLoS ONE, 2015)
The campaign covered roughly 310,000 compounds. About 2,200 (0.71%) showed an effect of 50% or more. The effect is printed as a negative number. This is one part of the list.

Each compound was assayed against human ether-à-go-go-related gene (hERG) potassium channel (human, UniProt Q12809) (assay: primary screen, population patch clamp on CHO cells stably expressing hERG).
Sequence of human ether-à-go-go-related gene (hERG) potassium channel (Q12809 whole entry, looked up): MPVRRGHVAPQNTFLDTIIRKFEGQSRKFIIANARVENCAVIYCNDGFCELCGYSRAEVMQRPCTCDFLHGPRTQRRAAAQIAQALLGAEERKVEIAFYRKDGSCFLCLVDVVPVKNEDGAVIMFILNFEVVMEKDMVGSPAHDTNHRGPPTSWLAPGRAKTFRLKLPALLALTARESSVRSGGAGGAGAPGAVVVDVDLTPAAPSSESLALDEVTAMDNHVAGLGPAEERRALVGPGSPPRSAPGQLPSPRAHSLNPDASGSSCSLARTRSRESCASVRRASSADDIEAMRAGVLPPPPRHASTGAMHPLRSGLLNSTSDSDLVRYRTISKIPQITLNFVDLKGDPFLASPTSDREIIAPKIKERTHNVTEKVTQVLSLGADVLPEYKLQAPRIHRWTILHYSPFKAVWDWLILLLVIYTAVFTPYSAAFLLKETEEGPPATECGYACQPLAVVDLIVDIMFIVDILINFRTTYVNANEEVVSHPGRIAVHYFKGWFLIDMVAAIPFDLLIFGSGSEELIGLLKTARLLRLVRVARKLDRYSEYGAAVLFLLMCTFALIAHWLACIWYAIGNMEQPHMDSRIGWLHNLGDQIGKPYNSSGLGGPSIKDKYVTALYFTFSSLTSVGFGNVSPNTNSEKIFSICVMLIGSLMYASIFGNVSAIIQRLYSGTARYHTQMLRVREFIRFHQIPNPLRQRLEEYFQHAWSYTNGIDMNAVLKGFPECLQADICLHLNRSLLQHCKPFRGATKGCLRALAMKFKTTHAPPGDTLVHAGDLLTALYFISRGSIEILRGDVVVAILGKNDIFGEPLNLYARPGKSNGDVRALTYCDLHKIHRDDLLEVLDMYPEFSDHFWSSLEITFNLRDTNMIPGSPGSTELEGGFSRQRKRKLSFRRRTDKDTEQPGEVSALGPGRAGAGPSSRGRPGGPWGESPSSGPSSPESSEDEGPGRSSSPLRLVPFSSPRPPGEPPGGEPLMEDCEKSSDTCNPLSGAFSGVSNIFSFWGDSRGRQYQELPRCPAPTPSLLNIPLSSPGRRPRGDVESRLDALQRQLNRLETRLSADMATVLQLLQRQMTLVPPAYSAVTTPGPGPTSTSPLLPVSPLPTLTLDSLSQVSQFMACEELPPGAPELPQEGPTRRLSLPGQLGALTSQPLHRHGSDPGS

Compound | hERG current change (%, negative = inhibition) at 1uM
O=C(CCN1C(=O)/C(=C/c2ccc3c(c2)OCO3)SC1=S)Nc1ccc(C(=O)O)cc1 | 13.6%
O=C1C2C3C=CC(C3)C2C(=O)N1c1ccc(N2CCN(c3ccccn3)CC2)c([N+](=O)[O-])c1 (stereo not drawn) | -3.4%
Cn1c2c(c(=O)n(C)c1=O)NC1(N2)C(=O)Nc2ccccc21 (stereo not drawn) | 9.25%
Cc1cccc(C)c1OCCCn1ccnc1 | 14.4%
O=C(Cc1ccccc1)NNC(=O)C1CC=CCC1 (stereo not drawn) | 19.1%
NCCCN1CCN(c2ccccc2)CC1 | -3.41%
COc1ccc(CC(=O)Nc2ccncc2Cl)cc1 | 20.8%
Cc1cc(C)c2c(c1)/C(=N/NS(=O)(=O)c1ccc(Br)cc1)CCC2 | 10.8%
CNC(=O)N(O)C1N(/N=C/c2ccccc2OC)C(=S)SC1(C)C (stereo not drawn) | -8.28%
Cc1ccccc1Nc1nnc(SCC(=O)Nc2ncc(C(F)(F)F)cc2Cl)s1 | 1.58%
Cc1ccc(-c2noc(CN(C(=O)c3cccs3)C(C)C)n2)cc1 | 13%
O=C(CN1C(=O)c2ccccc2S1(=O)=O)Nc1ccccn1 | 9.6%
CCOC(=O)c1c(C)[nH]c(C)c1S(=O)(=O)N1CCN(C(=O)c2ccco2)CC1 | 19.8%
CC1(C)Cc2c(cnn2-c2ccccc2)C(=O)/C1=N\NC(=O)c1ccccc1O | 6.64%
Cc1ccc(-c2cc3onc(-c4ccccc4)c3c(=O)n2C)cc1 | 7.47%
Clc1c(-c2ccccc2)nnn1-c1ccccc1 | -2.38%
CN1CCCN=C1/C=C/c1cccs1.O=C(O)C(O)C(O)C(=O)O | 10.9%
CCNc1nc(NCc2ccccc2)nc(SCC(=O)Nc2ccccc2)n1 | 2.94%
Cc1ccc(-c2nn3c(C)nnc3s2)cc1NC(=O)c1cccnc1 | -9.12%
Cn1c(CCNC(=O)c2cccs2)nnc1SCC(=O)N1CCN(c2ccccc2)CC1 | 12.1%
CCCCOc1ccc(C(=O)OCC(=O)N2CCOCC2)cc1 | 9.82%
CC(C)C(CO)NC(=O)CC(=O)NC(CO)C(C)C (stereo not drawn) | -1.24%
CN(C(=O)CCn1c(=S)oc2ccccc21)C1CCCCC1 | -2.64%
COc1ccc(C(C)=O)cc1CC(C(=O)c1ccc(C)cc1)N(C)C (stereo not drawn) | 3.16%
COc1ccc(-c2nc3n(c(=O)c2C#N)CCS3)cc1OC | 10.1%
CC(=O)c1ccc(NC2c3ncccc3C(=O)N2Cc2ccc(F)cc2)cc1 (stereo not drawn) | -10.4%
COc1ccc(C2NC(c3ccc(OC)cc3)C(c3ccccc3)C(=O)C2c2ccccc2)cc1 (stereo not drawn) | -0.694%

Compound | hERG current change (%, negative = inhibition) at 1uM
CCOC(=O)Nc1ccc2c(c1)N(C(=O)CCN(C)C)c1ccccc1S2.Cl | -5.69%
N#Cc1c(C(F)(F)F)cc(=O)n2c1[nH]c1ccccc12 | 15.5%
CC1CCC2C(=O)N(c3ccc(C(=O)Oc4cccc5cccnc45)cc3)C(=O)C2C1 (stereo not drawn) | 5.78%
Cc1cc(C)c(S(=O)(=O)c2cccc(Cl)c2)c(Cl)n1 | 9.47%
O=[N+]([O-])c1cccc(CN2[C@@H](Cc3ccccc3)COCCS2(=O)=O)c1 | 8.26%
CCN(CC(=O)Nc1ccccc1C(=O)OC)S(=O)(=O)c1ccccc1 | 6.88%
Cc1ccc(S(=O)(=O)N/N=C(\c2ccccc2)C2CC2)cc1 | 10.7%
COCC(=O)N(C)C1(c2nnnn2CCOC(=O)Nc2cccc3ccccc23)CCCC1 | 12.5%
O=c1c2ccccc2n(CC(O)CN2CCOCC2)c2ccccc12 (stereo not drawn) | 1.17%
CCOC(=O)N1CCN(c2nc(-c3ccco3)cc(C(F)(F)F)n2)CC1 | 6.85%
CC1CCCC(NC(=O)COC(=O)COc2ccc(Cl)cc2)C1C (stereo not drawn) | 13.8%
C=CCN(C(=O)c1cccc(S(=O)(=O)N2CCN(C)CC2)c1)c1nc(-c2ccccc2)cs1 | 6.96%
Cc1ccccc1NC(=O)Cc1nnc(SCC(=O)Nc2ccccc2)n1C | 8.03%
CCN(CC)c1ccc(/C=N/N2CCN(Cc3ccc(Cl)cc3)CC2)c(O)c1 | 7.28%
CCOc1ccc(-c2nnc(SCC(=O)NC(C)(C)C)nc2-c2ccc(OCC)c(OC)c2)cc1OC | 8.32%
O=C(NCCOc1ccc(Cl)cc1)c1cccc(S(=O)(=O)N2CCCC2)c1 | -6.99%
CCOC(=O)c1sc(NC(=O)CSc2n[nH]c(-c3ccncc3)n2)c(C#N)c1C | 15.6%
CC(NCC(=O)Nc1ccccc1C(=O)NC1CC1)c1ccc(S(C)(=O)=O)cc1 (stereo not drawn) | 10.9%
COc1ccc(Nc2nc(C)cc(C)n2)cc1Cl.Cl | 8.61%
CCOC(=O)c1ccc(Nc2nc(C(=O)OCC)nc3ccccc23)cc1 | 4.76%
CC(=O)Nc1ccc(S(=O)(=O)N2CCC(NC(=O)C(Cc3cccc(F)c3)NC(C)=O)CC2)cc1 (stereo not drawn) | 18.5%
CCc1ccc(C2(O)CC(C(F)(F)F)=NN2C(=O)Cc2ccc([N+](=O)[O-])cc2)cc1 (stereo not drawn) | 2.37%
O=C1CC(N2CCN(c3ccc(Cl)cc3)CC2)C(=O)N1c1ccc(F)cc1 (stereo not drawn) | 11%
COc1ccc(N2C(=O)CSC2c2ccccc2F)c(OC)c1 (stereo not drawn) | 10.6%
CCc1ccc(C(CNc2nc(C(F)(F)F)nc3ccccc23)N(C)C)cc1 (stereo not drawn) | 12.1%
CCOC1=C/C(=C/c2c(N)n3nc(S(=O)(=O)CC)sc3nc2=O)C=CC1=O | -3.94%
CC[C@@]12C(=O)N(c3cccc(F)c3)C(=O)N1[C@H](c1ccc(F)cc1)[C@@H]1C(=O)N(C3CCCCC3)C(=O)[C@@H]12 | 17.4%
